Where “and” joins values, the source holds several entries; their conditions need not be identical. Identical values can stand only once. Among all 16,000 compounds or so, about 40 (0.2%) were called active. Roughly 1% stayed inconclusive and do not appear here. Calls follow the shape of the dose curve; as a rule, active = well fitted activation curve with a large enough effect; inconclusive = small, poorly fitted or top-dose-only effect, or another doubt; inactive = no such curve, though single readings can be large or run the other way. The list shows a part of the results.
These molecules were tested against Rap guanine nucleotide exchange factor 4 (Homo sapiens) (UniProt Q8WZA2) (assay: Validation qHTS for agonist of cAMP-regulated guanine nucleotide exchange factor 4 (EPAC2)). Conditions: EPAC2 Rap1B BODIPY-GDP exchange, fluorescence; activation: stronger effect = higher value.
Chain of UniProt Q8WZA2 (Q8WZA2 whole entry, looked up): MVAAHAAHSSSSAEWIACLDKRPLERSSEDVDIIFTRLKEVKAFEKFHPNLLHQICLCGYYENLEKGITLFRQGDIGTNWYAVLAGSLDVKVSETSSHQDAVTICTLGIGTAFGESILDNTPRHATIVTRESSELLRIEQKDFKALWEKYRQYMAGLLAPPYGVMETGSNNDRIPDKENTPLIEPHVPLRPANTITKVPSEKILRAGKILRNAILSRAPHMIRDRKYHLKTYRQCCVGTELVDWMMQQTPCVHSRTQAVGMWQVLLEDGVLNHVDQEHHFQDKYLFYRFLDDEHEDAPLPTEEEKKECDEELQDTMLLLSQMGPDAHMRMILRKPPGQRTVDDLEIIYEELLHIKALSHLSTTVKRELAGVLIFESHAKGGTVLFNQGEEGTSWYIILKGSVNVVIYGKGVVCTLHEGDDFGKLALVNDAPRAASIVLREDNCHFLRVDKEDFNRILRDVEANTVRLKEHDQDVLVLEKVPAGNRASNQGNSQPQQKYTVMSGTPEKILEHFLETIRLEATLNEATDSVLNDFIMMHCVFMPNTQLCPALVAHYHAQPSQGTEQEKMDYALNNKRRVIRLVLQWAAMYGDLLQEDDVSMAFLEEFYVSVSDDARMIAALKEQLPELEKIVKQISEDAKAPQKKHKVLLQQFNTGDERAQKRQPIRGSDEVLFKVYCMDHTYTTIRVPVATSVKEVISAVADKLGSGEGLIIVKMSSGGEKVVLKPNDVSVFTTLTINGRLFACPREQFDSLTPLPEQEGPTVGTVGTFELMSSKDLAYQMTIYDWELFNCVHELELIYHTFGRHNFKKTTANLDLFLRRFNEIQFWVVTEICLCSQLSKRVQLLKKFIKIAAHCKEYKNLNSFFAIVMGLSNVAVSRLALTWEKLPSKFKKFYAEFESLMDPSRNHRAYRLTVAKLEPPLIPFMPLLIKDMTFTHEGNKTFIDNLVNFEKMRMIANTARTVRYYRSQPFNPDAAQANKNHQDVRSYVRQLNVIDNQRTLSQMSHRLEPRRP
Outline: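 Fluorescent exchange assay: 100 nM EPAC2 with 250 nM RAP1B-BODIPY-GDP and 50 uM GDP; compound added, 5 min at room temperature, then read (ex 480/em 540 nm) every 5 min for 30 min. Normalized to 6.5 mM cAMP agonist control.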
% is scaled to controls: 0 for no effect and ±100 for the full control effect.
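Also: exchange makes BODIPY-GDP fluorescence drop when released from Rap1B; series mostly up to about 150 µM.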

activation, inactive:
COCCn1c(=O)c(C)nc2cnc(Oc3ccccc3)nc21 -7.54%
CC(=O)N1CCC2(CC1)CN(C(=O)Nc1cccc(C#N)c1)C2 -4.19%
O=c1c(-c2cc(F)cc(F)c2)nc2cnc(N3CCOCC3)nc2n1C[C@H]1CCCO1 -1.24%
N#C/C(=C\c1ccc(O)c(O)c1)C(=O)NCc1ccccc1 -21.2% and -5.58% and -30.5%
O=C(/C=C/c1ccccc1)NCCO -10.9%
N#CC(=C(\N)Sc1ccccc1N)/C(C#N)=C(/N)Sc1ccccc1N -1.32%
CN(C)c1ccnc(-c2cccc(NS(C)(=O)=O)c2)n1 -8.46%
COc1ccc(-n2c(=O)c(-c3cn(C)c4ccccc34)nc3cnc(N4CCNCC4)nc32)cc1 -25.8%
C#C[C@]1(O)CC[C@H]2[C@@H]3CCC4=CC(=O)CC[C@@H]4[C@H]3CC[C@@]21CC -0.883%
CC(C)CCCC(C)NC(C)C (stereo unspecified) 0.872%
Cc1cc(C)c(S(=O)(=O)Nc2cccc(C(F)(F)F)c2)c(C)c1 -35.3%
COc1ccc2[nH]cc(CCNc3cc(-c4ccccc4Cl)ncn3)c2c1 -13.1%
CN1C2CCC1CC(OC(=O)C(O)c1ccccc1)C2 (stereo unspecified) 6.43% and -7.04%
O=C(c1ccco1)N1CCC2(CC1)CCN(c1ccccc1)CC2 -4.3%
CCN(CC)CCOCCOC(=O)C(CC)(CC)c1ccccc1 8.54%
O=c1c(-c2ccc(Cl)cc2)nc2cnc(N3CCNCC3)nc2n1Cc1cccs1 17.8%
C=CCN1c2ccccc2C(=O)CS1(=O)=O -31.1%
CCCCC/C=C\C/C=C\C/C=C\C/C=C\CCCC(=O)O -54.4% and -15.4% and -15.1%
CCCN1CCC(=O)N(CCOc2ccccc2)CC1 -11.7%
Nc1ccccc1C(=O)CC(N)C(=O)O (stereo unspecified) -4.02% and 1.77%
CS(=O)(=O)N1CCC[C@@]2(CCN(c3ncccn3)C2)C1 -5.03%
CC(=O)OC1CC2C(C)(C)C(=O)CC[C@]2(C)C2CC[C@]3(C)C(=CC(=O)OC3c3ccoc3)[C@]12C (stereo partly specified) -2.4%
COC(=O)Nc1ccc2[nH]cc(CCNC(C)=O)c2c1 -4.95% and 1.58%
CCC[C@H]1COCCS(=O)(=O)N1Cc1ccc(Br)cc1 -6.88%
CCCOc1ccc(C(=O)OCCN(CC)CC)cc1N 7.29%
Cc1noc(C)c1C(=O)N1CCC2(CC1)CN(Cc1cc(C(F)(F)F)cc(C(F)(F)F)c1)C2 -16.8%
Cn1cccc1C(=O)N1CCC2(CC1)CN(Cc1cc(C(F)(F)F)cc(C(F)(F)F)c1)C2 -30.8%
Nc1nc2c(ncn2CCC(CO)CO)c(=O)[nH]1 -18.8%
COc1ccc2cc(CNCc3ccccc3C(F)(F)F)c(N3CCCC(CO)C3)nc2c1 (stereo unspecified) -7.23%
N#Cc1cccc(-c2ccc3ncnc(N4CCNCC4)c3c2)c1 1.83%
COC1C(O)C(O)C(O)C(O)C1O (stereo unspecified) -11.4%
COCCn1c(=O)c(-c2cc(F)cc(F)c2)nc2cnc(N3CCOCC3)nc21 -5.38%
CSc1ccc(CN2CCOc3ccc(CN4CCCCC4CO)cc3C2)cc1 (stereo unspecified) 0.462%
COC(=O)CC1C(C)(C)C(OC(C)=O)C2[C@H](OC(C)=O)[C@]34O[C@]2(O)[C@]1(C)C3CC[C@]1(C)C4=CC(=O)OC1c1ccoc1 (stereo partly specified) -16.8%
c1cc2c3c(c1)CCCN3CCC2 -18.8%
O=P(O)(O)OC(CO)CO 1.23%
O=C(c1cccc(F)c1)N1CCC[C@@]2(CCN(c3ccccc3)C2)C1 -16.9%
N#Cc1ccc(CN2CCC3(CC2)CCN(C(=O)c2cnccn2)CC3)cc1 -2.21%
CC1=C(/C=C/C(C)=C\C=C\C(C)=C\C(=O)O)C(C)(C)CCC1 -5.12% and -10.8%
CCCN1CCC(=O)N([C@H](CO)CC(C)C)CC1 -26.1%
CCN1CCCC1CNC(=O)c1cnn(-c2nccc(-c3cccs3)n2)c1C(C)C (stereo unspecified) -5.78%
Cc1nc(C)c(C(=O)NCc2nc(-c3cccc(NC(=O)c4ccccn4)c3)oc2C)s1 0.928%
COc1ccc2[nH]cc(CCNc3nc(-c4cccnc4)nc4ccccc34)c2c1 3.69%
N#Cc1cccc(NC(=O)N2CC[C@@]3(CCCN(C(=O)c4cnccn4)C3)C2)c1 -22.3%
CCCCOC(=O)CC(CC(=O)OCCCC)(OC(C)=O)C(=O)OCCCC -26.6%
O=S(=O)(NCc1ccccc1)[C@@H]1CC2C=CC1C2 (stereo partly specified) -30%
COc1ncc2nc(-c3cc(F)cc(F)c3)c(=O)n(C[C@H]3CCCO3)c2n1 -4.05%
CC1CN(CC(=O)N2CCN(Cc3nccn3C)CC2)Cc2cc(Cl)ccc2O1 (stereo unspecified) 4.35%
CC(=O)OCC(=O)[C@@]1(OC(C)=O)[C@@H](C)C[C@H]2[C@@H]3C[C@H](F)C4=CC(=O)C=C[C@]4(C)[C@@]3(F)[C@@H](O)C[C@@]21C 1.66%
O=C(C[n+]1cc(Br)cc2ccccc21)c1ccc(Br)cc1 -18%
O=C(NCCN1CCCCC1)c1ccc(I)cc1 2.44% and 3.63%
CS(=O)(=O)N1CCC[C@@]2(CCN(C(=O)Nc3cccc(C#N)c3)C2)C1 -4.8%
C[n+]1ccc(/C=C/c2ccc3ccccc3c2)cc1 2.09%
COc1cc(OC)c(OC)cc1CN1CCOc2ccc(CN3CCN(C(C)=O)CC3)cc2C1 -18.7%
CCC(Cc1c(I)cc(I)c(O)c1I)C(=O)O (stereo unspecified) -7.22%
CCn1c2ccccc2c2cc(CN3CCOc4ccc(C(O)c5cccnc5)cc4C3)ccc21 (stereo unspecified) -13.2%

Reference: PubChem BioAssay AID1645887 (National Center for Advancing Translational Sciences (NCATS), 2021)
